Measurements from PubChem BioAssay AID2546 (National Center for Advancing Translational Sciences (NCATS), 2010).
Out of some 310,000 compounds screened, about 11,000 (3.5%) were called active. Inconclusive results, whose numbers are uncertain, are shown with a selection of clear calls. Calls come from the whole dose curve; as a rule, active = well fitted inhibition curve with a large enough effect; inconclusive = small, poorly fitted or top-dose-only effect, or effect the other way; inactive = flat fitted curve, though single readings scatter. Potencies of inconclusive entries are left out as doubtful fits.

Assay: VP16 counterscreen qHTS for inhibitors of ROR gamma transcriptional activity;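 note: Gal4-VP16 expression switched on by copper sulfate through the metallothionein promoter; nearly all actives have a fitted effect of over 50% in size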
Conditions: Drosophila S2 Gal4-VP16 UAS-luciferase, luminescence, 20 h; series mostly up to 53.6 µM
Potency is the fitted concentration of half-maximal effect; tags give direction and shape of the fitted curve.

| Structure (SMILES) | Potency |
| --- | --- |
| Fc1ccc(C(CCCn2nnc(-c3cccnc3)n2)c2ccc(F)cc2)cc1 | inconclusive [inhibitor, single point] |
| CCOc1ccc2nc(N3C(=O)/C(=C/c4ccccc4)NC3=S)sc2c1 | active: 1.12 µM |
| CCSc1nccc(-c2nn(-c3ccc(C)cc3)ccc2=O)n1 | inactive |
| CC(C)Oc1ccc(N2CC(C(=O)Nc3ccc(N4CCOCC4)cc3)CC2=O)cc1 (stereo not given) | inactive |
| CCCn1c(SCC(=O)c2ccc3c(c2)NC(=O)CO3)nc2ccccc21 | inconclusive [inhibitor, single point] |
| COc1ccc(NC(=O)N2c3ccc(OC)cc3C(C)=CC2(C)C)cc1 | inconclusive [inhibitor, single point] |
| Cc1ccc2nc(NC(=O)c3ccc4c(c3)OCO4)sc2c1 | inconclusive [inhibitor, full curve, poor fit] |
| CCn1c(CNC(=O)c2ccc(Cl)cc2)nnc1SCC(=O)NC1=NCCS1 | inactive |
| CCn1c(O)c(/C=N/N=C/c2ccccc2)c2ccc(C3=NNC(=O)CC3)cc21 | inactive |
| CC(/C=N/Nc1nc(C)cc(C)n1)=C\c1ccc(C(C)C)cc1 | inconclusive [inhibitor, single point] |
| c1ccc(-n2cnc3cc(NCc4ccncc4)ccc32)cc1 | inconclusive [inhibitor, single point] |
| CCOC(=O)c1ccc(NC(=S)NCCc2ccccc2F)cc1 | inconclusive [inhibitor, single point] |
| CNC(=S)N1CCN=C1Nc1nc(C)cc(C)n1 | inconclusive [activator, full curve] |
| COc1ccc(-n2nc(C(=O)NCC(=O)N3CCN(c4cccc(Cl)c4)CC3)c3ccccc3c2=O)c(OC)c1 | inactive |
| O=c1[nH]c(N/N=C\c2ccc3c(c2)OCO3)nc2ccccc12 | inconclusive [inhibitor, single point] |
| COc1ccc2cc3cc(C(=O)N(C)C4CCCCC4)oc3nc2c1 | inconclusive [activator, full curve, poor fit] |
| CC(=O)N1CCN(c2ccc(NC(=O)C(c3ccccc3)c3ccccc3)cc2)CC1 | inactive |
| c1ccc2c(Nc3ccncc3)nc(-c3ccc4c(c3)OCO4)nc2c1 | active: 17.8 µM |
| COc1ccc(Cl)cc1N/C(N)=N/c1nc(CSc2ccc(C)cc2)cc(=O)[nH]1 | inactive |
| Cc1c2cc(O)c(=O)cc-2oc2cc(O)c(O)cc12 | inconclusive [inhibitor, partial curve] |
